From article PMC6949220
Where two headings read alike, the source gives them in different places. These are yes or no findings as the source states them, for the method shown. Binding seen in cells or lysates may run through a third protein. Some binding calls cover weakened binding; strength is not graded here. For part of these data: Sequences can lack the tags named with a protein. One block for each molecule: values may come before it.

The chains behind the UniProt entries cited, without tags or fusion partners. Residues count along the entry.
UniProt P40763: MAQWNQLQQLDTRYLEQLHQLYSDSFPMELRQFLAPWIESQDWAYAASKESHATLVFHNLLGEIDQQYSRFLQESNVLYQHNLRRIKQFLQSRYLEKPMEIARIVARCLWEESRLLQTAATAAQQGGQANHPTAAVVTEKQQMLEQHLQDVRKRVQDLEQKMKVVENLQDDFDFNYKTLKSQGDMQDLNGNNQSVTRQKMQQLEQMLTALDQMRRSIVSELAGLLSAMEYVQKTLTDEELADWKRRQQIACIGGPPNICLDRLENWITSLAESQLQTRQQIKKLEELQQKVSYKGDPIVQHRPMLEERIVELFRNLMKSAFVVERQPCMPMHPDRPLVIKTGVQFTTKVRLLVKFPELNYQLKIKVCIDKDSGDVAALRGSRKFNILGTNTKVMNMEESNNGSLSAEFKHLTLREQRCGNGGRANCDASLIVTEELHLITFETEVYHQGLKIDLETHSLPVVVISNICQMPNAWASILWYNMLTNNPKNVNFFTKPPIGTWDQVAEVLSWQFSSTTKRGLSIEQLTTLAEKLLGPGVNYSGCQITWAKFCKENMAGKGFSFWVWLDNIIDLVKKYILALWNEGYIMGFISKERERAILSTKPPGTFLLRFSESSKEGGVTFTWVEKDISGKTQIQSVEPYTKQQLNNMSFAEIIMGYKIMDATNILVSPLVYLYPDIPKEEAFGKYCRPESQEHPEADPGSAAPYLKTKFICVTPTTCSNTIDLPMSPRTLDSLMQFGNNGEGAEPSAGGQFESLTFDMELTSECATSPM
UniProt P28827, residues 21-1452: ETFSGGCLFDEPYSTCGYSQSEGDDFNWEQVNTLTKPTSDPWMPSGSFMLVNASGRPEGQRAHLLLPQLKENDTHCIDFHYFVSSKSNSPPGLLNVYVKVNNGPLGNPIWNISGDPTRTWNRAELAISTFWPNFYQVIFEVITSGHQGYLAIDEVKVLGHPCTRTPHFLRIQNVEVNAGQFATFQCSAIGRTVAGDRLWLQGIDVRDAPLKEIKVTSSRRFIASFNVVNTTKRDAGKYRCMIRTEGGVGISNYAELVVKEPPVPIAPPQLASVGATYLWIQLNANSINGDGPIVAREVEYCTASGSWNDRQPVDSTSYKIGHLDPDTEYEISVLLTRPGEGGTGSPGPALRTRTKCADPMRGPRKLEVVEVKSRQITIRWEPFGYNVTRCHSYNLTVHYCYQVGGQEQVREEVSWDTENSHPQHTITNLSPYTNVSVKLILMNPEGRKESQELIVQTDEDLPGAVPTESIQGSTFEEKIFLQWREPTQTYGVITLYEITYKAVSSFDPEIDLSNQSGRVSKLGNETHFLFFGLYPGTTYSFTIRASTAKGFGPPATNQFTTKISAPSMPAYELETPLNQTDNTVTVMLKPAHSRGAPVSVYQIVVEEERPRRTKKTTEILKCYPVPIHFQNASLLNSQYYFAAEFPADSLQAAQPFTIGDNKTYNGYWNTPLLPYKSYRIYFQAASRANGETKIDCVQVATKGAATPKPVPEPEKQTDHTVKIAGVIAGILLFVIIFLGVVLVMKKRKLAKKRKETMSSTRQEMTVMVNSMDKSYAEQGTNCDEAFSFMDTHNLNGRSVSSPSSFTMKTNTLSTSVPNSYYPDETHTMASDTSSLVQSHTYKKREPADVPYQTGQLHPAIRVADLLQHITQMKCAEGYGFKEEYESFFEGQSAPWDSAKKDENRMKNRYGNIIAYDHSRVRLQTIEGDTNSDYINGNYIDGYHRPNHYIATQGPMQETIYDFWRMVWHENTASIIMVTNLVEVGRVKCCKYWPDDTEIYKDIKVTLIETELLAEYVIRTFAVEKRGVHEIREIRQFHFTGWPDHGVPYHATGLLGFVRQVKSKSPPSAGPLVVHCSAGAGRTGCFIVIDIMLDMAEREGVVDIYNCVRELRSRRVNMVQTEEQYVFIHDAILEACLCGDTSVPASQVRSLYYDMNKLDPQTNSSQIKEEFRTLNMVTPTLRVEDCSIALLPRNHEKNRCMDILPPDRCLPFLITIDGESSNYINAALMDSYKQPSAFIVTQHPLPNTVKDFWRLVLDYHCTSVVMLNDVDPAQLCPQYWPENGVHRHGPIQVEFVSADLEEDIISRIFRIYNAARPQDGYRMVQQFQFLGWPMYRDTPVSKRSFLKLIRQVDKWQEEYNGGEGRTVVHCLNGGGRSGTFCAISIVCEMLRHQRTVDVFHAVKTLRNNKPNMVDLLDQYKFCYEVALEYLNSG

Assays:
[1] = biological target: HA-STAT3 wild type (signal transducer and activator of transcription 3) (UniProt P40763); experiment: co-IP; tagged proteins co-transfected (HEK293T where stated); lysates precipitated with anti-HA, anti-Flag or anti-Myc, immunoblot
[2] = biological target: HA-STAT3 wild type (signal transducer and activator of transcription 3) (UniProt P40763); experiment: co-IP; HEK293T co-transfected with FLAG-DDIAS and/or Myc-PTPRM and HA-STAT3; precipitated with anti-HA antibody
[3] = biological target: endogenous STAT3 (human (endogenous in NCI-H1703)) (UniProt P40763); experiment: co-IP; endogenous proteins; lysates incubated with anti-STAT3 or anti-DDIAS antibody; cells treated with IL-6 (PTPRM/STAT3, also after DDIAS knock-down); NCI-H1703 for DDIAS/STAT3
[4] = biological target: HA-STAT3 wild type (signal transducer and activator of transcription 3) (UniProt P40763); experiment: co-IP; tagged proteins co-transfected (HEK293T where stated); lysates precipitated with anti-HA, anti-Flag or anti-Myc, immunoblot; remark: listed apart in the source
[5] = biological target: Myc-DDK-tagged PTPRM (protein tyrosine phosphatase receptor mu) (UniProt P28827); experiment: as above
[6] = biological target: endogenous STAT3 (human (endogenous in NCI-H1703)) (UniProt P40763); experiment: co-IP; endogenous proteins; lysates incubated with anti-STAT3 or anti-DDIAS antibody; cells treated with IL-6 (PTPRM/STAT3, also after DDIAS knock-down); NCI-H1703 for DDIAS/STAT3; remark: listed apart in the source

Molecule: Myc-DDK-tagged PTPRM (protein tyrosine phosphatase receptor mu) (from UniProt P28827 21-1452)
binding [1]: binds
binding [2]: binds

B2: endogenous DDIAS (protein, UniProt Q8IXT1 1-998)
chain: MNRRRKFLLASVLALQNSSFIYPSCQKCFSRIILVSKRSNCPKCGSTGESGNANYRYKLSLKVAESNKLFVITVFGSCLDTFFGLTATGLHRYIQDPNKIPETLDNDTTQNLLTKAVETCFVGQSFIFGVTNFENQPGQGSDASNFLQQCSDHKRKAKALVACQIVLPDPGIAGFTVIDYFHQLLQTFNFRKLQCDSQAPNNHLLALDHSNSDLSSIYTSDSTSDFFKSCSKDTFSKFWQPSLEFTCIVSQLTDNDDFSASEQSKAFGTLQQNRKSISIAEATGSSSCHDPIQDSWSLVSYMDKKSTAEKLGKELGLQAKELSAVHSSHHEIGVNDSNLFSLEMREPLESSNTKSFHSAVEIKNRSQHELPCFQHHGIDTPTSLQKRSACCPPSLLRLEETASSSQDGDPQIWDDLPFSESLNKFLAVLESEIAVTQADVSSRKHHVDNDIDKFHADHSRLSVTPQRTTGALHTPPIALRSSQVIVKANCSKDDFLFNCKGNLSPSVEKESQPDNKVEAVSVNHNGRDMSEYFLPNPYLSALSSSSKDLETIVTLKKTIRISPHRESDHSSLNNKYLNGCGEISVSEMNEKLTTLCYRKYNDVSDLCKLENKQYCRWSKNQDDSFTICRKLTYPLETLCNSPNRSTNTLKEMPWGHINNNVTQSYSIGYEGSYDASADLFDDIAKEMDIATEITKKSQDILLKWGTSLAESHPSESDFSLRSLSEDFIQPSQKLSLQSLSDSRHSRTCSPTPHFQSDSEYNFENSQDFVPCSQSTPISGFHQTRIHGINRAFKKPVFYSDLDGNYEKIRIFPENDKQQASPSCPKNIKTPSQKIRSPIVSGVSQPDVFNHYPFAECHETDSDEWVPPTTQKIFPSDMLGFQGIGLGKCLAAYHFPDQQELPRKKLKHIRQGTNKGLIKKKLKNMLAAVVTKKKTHKYNCKSSGWISKCPDIQVLAAPQLHPILGPDSCSEVKCCLPFSEKGPPSVCETRSAWSPELFS
binding [6]: binds

The remaining lines, values ahead:

binding [3]: binds
Molecule: endogenous PTPRM (from UniProt P28827 21-1452) (receptor)

binding [4]: binds
binding [5]: no binding
B1: Flag-DDIAS (DNA damage-induced apoptosis suppressor) (protein, UniProt Q8IXT1 1-998)
chain: B2 chain
